The record followed here is PMC4336329 (PLoS ONE, 2015).

The campaign covered roughly 310,000 compounds. About 14,000 (4.5%) showed an effect of 50% or more. The effect is printed as a negative number. This is one part of the list.
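Note: peak tail current of the secondary pulse compared with the same well before compound.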

Chain of human ether-à-go-go-related gene (hERG) potassium channel (Q12809 whole entry, looked up): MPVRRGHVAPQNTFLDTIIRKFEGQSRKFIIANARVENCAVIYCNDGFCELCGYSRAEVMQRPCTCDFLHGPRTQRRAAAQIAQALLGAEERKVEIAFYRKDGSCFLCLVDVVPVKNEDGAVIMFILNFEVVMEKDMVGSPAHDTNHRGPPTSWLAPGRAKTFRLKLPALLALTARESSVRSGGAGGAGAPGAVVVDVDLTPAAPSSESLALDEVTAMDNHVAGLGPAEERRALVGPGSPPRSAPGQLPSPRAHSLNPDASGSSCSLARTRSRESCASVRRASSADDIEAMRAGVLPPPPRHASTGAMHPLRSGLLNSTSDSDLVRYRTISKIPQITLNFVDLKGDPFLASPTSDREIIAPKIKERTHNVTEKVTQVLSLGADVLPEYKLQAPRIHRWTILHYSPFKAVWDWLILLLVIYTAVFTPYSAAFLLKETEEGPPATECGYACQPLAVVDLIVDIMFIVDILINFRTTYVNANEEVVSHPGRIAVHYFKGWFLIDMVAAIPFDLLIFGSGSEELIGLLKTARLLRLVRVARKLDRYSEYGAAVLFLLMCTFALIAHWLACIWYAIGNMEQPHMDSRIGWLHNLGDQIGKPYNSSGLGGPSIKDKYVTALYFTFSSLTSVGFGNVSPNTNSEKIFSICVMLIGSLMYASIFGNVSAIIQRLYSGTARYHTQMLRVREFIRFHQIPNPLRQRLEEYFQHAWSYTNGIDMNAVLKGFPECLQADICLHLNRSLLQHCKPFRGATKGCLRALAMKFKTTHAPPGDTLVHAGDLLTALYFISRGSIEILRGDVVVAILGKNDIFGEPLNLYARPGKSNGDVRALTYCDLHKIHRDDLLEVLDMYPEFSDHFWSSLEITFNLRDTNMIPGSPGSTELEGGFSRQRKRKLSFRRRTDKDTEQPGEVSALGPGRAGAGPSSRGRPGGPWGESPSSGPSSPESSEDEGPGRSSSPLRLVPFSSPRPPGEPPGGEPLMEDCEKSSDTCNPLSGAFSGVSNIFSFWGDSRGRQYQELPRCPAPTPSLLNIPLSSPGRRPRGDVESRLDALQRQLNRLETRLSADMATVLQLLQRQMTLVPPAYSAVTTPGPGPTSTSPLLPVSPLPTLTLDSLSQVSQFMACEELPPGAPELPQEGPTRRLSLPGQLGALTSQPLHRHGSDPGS

This experiment concerns the target human ether-à-go-go-related gene (hERG) potassium channel (human, UniProt Q12809). Nature of the experiment: primary screen, population patch clamp on CHO cells stably expressing hERG.
Turning to `CC(=O)c1cccc(S(=O)(=O)N2CCC(C(=O)O)(c3ccccc3)CC2)c1`, the “hERG current change (%, negative = inhibition) at 10uM” value stood at 19.4%. For `CCn1c(SCC(=O)c2ccccc2)nnc1-c1cccnc1`, the “hERG current change (%, negative = inhibition) at 10uM” value is on record as -14.5%. As for `COC(=O)c1ccccc1CSc1nsc(/C=C/N(C)C)c1C#N`, the figure is 17.3%; as for `Cc1ccc(-c2noc(C3CCCN(C(=O)c4cccc(F)c4)C3)n2)cc1` (stereo not drawn), 0.64%; as for `COc1ccc(C)cc1NC(=O)C1CCCN1C(=O)OCc1ccccc1` (stereo not drawn), -6.78%.

Take `O=C(c1ccco1)N1CCN(C(=S)Nc2ccc(Br)cc2Cl)CC1`: the “hERG current change (%, negative = inhibition) at 10uM” value is recorded as -44.7%.

Regarding `CCCOc1ccc(-c2nnn(CC(=O)c3c[nH]c4ccccc34)n2)cc1`, the “hERG current change (%, negative = inhibition) at 10uM” value is recorded as 3.23%. Regarding `COc1cccc(/C=C2\SC(=N)N(c3ccc(F)cc3)C2=O)c1`, the “hERG current change (%, negative = inhibition) at 10uM” value stood at 9.22%.

As to `CCOc1ccccc1NC(=O)Cn1cnc2c(cnn2-c2ccc(C)c(C)c2)c1=O`, the “hERG current change (%, negative = inhibition) at 10uM” value worked out at 11%. As for `CCc1ccc(S(=O)(=O)NC(=S)NC2CCCCC2)cc1`, the figure is 17.2%; as for `CCCc1nnc(NC(=O)c2ccc([N+](=O)[O-])cc2)s1`, -3.29%. `CSc1cc(C)n(-c2ccc(Cl)cc2)c(=S)c1C(C)=O`: the “hERG current change (%, negative = inhibition) at 10uM” value is given as -33.9%. Take `CC(=O)c1ccc(OCc2cc(C(=O)NC(C)CCn3cccn3)no2)cc1` (stereo not drawn): the “hERG current change (%, negative = inhibition) at 10uM” value stood at 4.34%.

`NS(=O)(=O)c1ccc(CNC(=O)NC23CC4CC(CC(C4)C2)C3)cc1`: the “hERG current change (%, negative = inhibition) at 10uM” value is listed as -5.83%. As for `c1csc(C2CCCN2c2nc3nonc3nc2NC2CC2)n1` (stereo not drawn), the figure is 11.4%; as for `COc1cccc(Oc2cc(Cl)nc(N)n2)c1`, -6.51%.

As to `CCc1noc(C)c1C(=O)Nc1nc(-c2ccc(Cl)cc2Cl)cs1`, the “hERG current change (%, negative = inhibition) at 10uM” value is reported as -4.11%. As for `Cc1ccc(-n2c(O)c(C=N)c(=O)n(-c3ccc(C)cc3)c2=O)cc1`, the figure is -8.85%; as for `Cc1cc(NC(=O)/C(C#N)=C/c2ccc(-c3cccc(C(F)(F)F)c3)o2)n(-c2ccccc2)n1`, -16.4%.

Regarding `CC(OC(=O)CC1CCCCC1)C(=O)Nc1cccc(C#N)c1` (stereo not drawn), the “hERG current change (%, negative = inhibition) at 10uM” value is on record as -25%. As for `CN1C(=O)C(=Cc2ccccc2Oc2ccc(Cl)cc2)C(=O)N(C)C1=O`, the figure is -7.42%; as for `CSc1ccc(S(=O)(=O)N2c3ccccc3CC2C)cc1` (stereo not drawn), 2.29%. For `CCn1ncc(/C=C2/SC(=S)NC2=O)c1C`, the “hERG current change (%, negative = inhibition) at 10uM” value is reported as 23.6%.

On to `COCCCN1C(=O)CS/C1=N\S(=O)(=O)c1ccccc1`, for which the “hERG current change (%, negative = inhibition) at 10uM” value is on record as -4.81%. Turning to `Cc1ccc(OCC(=O)Nc2cc(S(=O)(=O)N3CCOCC3)ccc2Cl)c([N+](=O)[O-])n1`, the “hERG current change (%, negative = inhibition) at 10uM” value was -19.2%. The result for `CCn1c(SCC(=O)Nc2ccc(N3CCOCC3)c(Cl)c2)nnc1-c1ccc(N)cc1` reads 0.885%. As for `CC1Cc2ccccc2N1CC(=O)Nc1ccc(N2CCOCC2)cc1` (stereo not drawn), the figure is -13.5%; as for `CCN(CC)CCNC(=O)c1ccc2c(c1)ncn2C1CCCCC1`, -7.07%. `CCSC1(SCC)N=C(N)C2(C#N)C(c3ccc(OC)c(OC)c3OC)C12C#N` (stereo not drawn): the “hERG current change (%, negative = inhibition) at 10uM” value was -22.3%. As for `CC(=O)c1c(C)c[nH]c1C`, the figure is 19.5%; as for `O=C(COc1ccc(F)cc1Cl)Nc1cc(S(=O)(=O)N2CCOCC2)ccc1N1CCCCC1`, 4.24%; as for `Cc1ccc(C(=O)C2CCN(S(=O)(=O)c3c(C)noc3C)CC2)cc1`, -67.3%. As for `c1ccc(-c2nnc3sc(Cc4cccs4)nn23)cc1`, the figure is -30.8%.

On to `COc1cc(NC(=O)Nc2ccccc2)c(OC)cc1NC(=O)CN1CCCCC1`, for which the “hERG current change (%, negative = inhibition) at 10uM” value is -32.1%. As for `CCCCN(CCCC)S(=O)(=O)c1ccc(SCC(=O)OCC)c([N+](=O)[O-])c1`, the figure is 3.61%; as for `CCOc1ccc(OCCn2nnc3ccccc3c2=O)cc1`, 17.9%; as for `CCCCOc1ccc(S(=O)(=O)NNC(=O)C2Cc3c(ccc4ccccc34)O2)cc1` (stereo not drawn), 9.49%. The result for `COc1ccccc1CN1CCNC(=O)C1CC(=O)O` (stereo not drawn) reads 7.68%; that for `COC(=O)Cc1cc(=O)n(-c2ccccc2)[nH]1`, -0.509%. For `CCc1nc2ccc(C(=O)N(C)CC(=O)Nc3cccc(F)c3)cc2nc1CC`, the “hERG current change (%, negative = inhibition) at 10uM” value is listed as -10.5%.

Turning to `Cc1ccc(-c2nnn(CC(=O)NCC3CC3)n2)o1`, the “hERG current change (%, negative = inhibition) at 10uM” value is 12.8%. `CCOc1ccc(C(=O)OCC(=O)Nc2ccc(SC(F)F)cc2)cc1OCC`: the “hERG current change (%, negative = inhibition) at 10uM” value is given as 3.55%. Consider `CCn1c(=N)n(CCO)c2ccccc21.Cl`, for which the “hERG current change (%, negative = inhibition) at 10uM” value is listed as 5.84%. Consider `CCS(=O)(=O)N1CCN(C(=O)c2cccnc2)CC1`, for which the “hERG current change (%, negative = inhibition) at 10uM” value is given as -6.19%.

As to `COc1ccc(-c2cc(=O)oc3cc(OCC(=O)NCc4ccccn4)ccc23)cc1`, the “hERG current change (%, negative = inhibition) at 10uM” value is -6.52%.

In the case of `Cc1nc(Cl)sc1C(=O)Nc1ccc2ccccc2c1`, the “hERG current change (%, negative = inhibition) at 10uM” value was found to be 8.55%.

With `Cc1ccc(Cl)cc1NC(=S)N/N=C/c1cccc2ccccc12`, the “hERG current change (%, negative = inhibition) at 10uM” value amounted to 11.9%. As for `Cc1sc2ncnc(N3CCC(C(=O)NCC(=O)Nc4ccc(F)c(F)c4)CC3)c2c1C`, the figure is -67.2%; as for `COc1ccc(/C=C2\SC(=O)N(CC(=O)N(C)C3CCS(=O)(=O)C3)C2=O)cc1` (stereo not drawn), -1.39%; as for `O=[n+]1c2c(n([O-])c3ccccc31)CCC2`, 6.51%.

For the molecule `CN(c1nc2ccccc2[nH]c1=O)C1CCCCC1`, the “hERG current change (%, negative = inhibition) at 10uM” value was 1.68%. With `O=C(Nc1ccc([N+](=O)[O-])cc1)c1cccc(S(=O)(=O)Nc2cccnc2)c1`, the “hERG current change (%, negative = inhibition) at 10uM” value was found to be 5.16%. Take `COc1ccc(C2C(C(=O)c3ccco3)=C(O)C(=O)N2CC2CCCO2)c(OC)c1` (stereo not drawn): the “hERG current change (%, negative = inhibition) at 10uM” value was determined as 1.24%. The result for `CCCCn1c(N)c(N(CC(C)C)C(=O)C2CCN(S(=O)(=O)c3ccccc3)CC2)c(=O)[nH]c1=O` reads -1.01%; that for `FC(F)Sc1ccc(-n2c(-c3ccc(Cl)cc3)c[n+]3c2CCC3)cc1.[Br-]`, -92.6%; that for `CCOC(=O)N1CCN(C(=O)CN(c2ccccc2OC)S(=O)(=O)c2ccc(C)cc2)CC1`, -20.4%. As for `Cc1ccc2[nH]c(=O)c(-c3noc(C(C)C)n3)cc2c1`, the figure is -16%; as for `Cc1ccc(NC(=O)CCNC(=O)Nc2ccccc2)cc1S(=O)(=O)N(C)C`, 1.05%. As for `Cc1ccc(-n2c(C(C)n3nc(C)c([N+](=O)[O-])c3C)n[nH]c2=S)cc1` (stereo not drawn), the figure is 11.3%; as for `COc1cc(C2c3c(oc4ccccc4c3=O)C(=O)N2CCN2CCOCC2)cc(OC)c1OC` (stereo not drawn), -4.12%. `C/C(Cn1nnc([N+](=O)[O-])n1)=N\NC(=O)c1ccccc1`: the “hERG current change (%, negative = inhibition) at 10uM” value turned out to be 3.37%. The result for `CC1=C(C(=O)Nc2ccccc2C(=O)NCCCN2CCN(C)CC2)SCCO1` reads 9.05%; that for `O=C(COC(=O)c1nc(Cl)ccc1Cl)NC1CCCCC1`, 12.2%; that for `COc1ccc(CCNC(=O)Cn2nnc(-c3ccccc3F)n2)cc1OC`, 1.44%. As for `CC(=O)NC(Cc1cc(C)ccc1C)C(=O)N1CCN(C(=O)Nc2ccc(C(C)=O)cc2)CC1` (stereo not drawn), the figure is -4.23%; as for `O=[N+]([O-])c1cccc(-c2ccc(SCc3cccnc3)nn2)c1`, -55%; as for `CC1CC(C)CN(CCCNC(=O)Cn2ncc3c(=O)oc4ccccc4c32)C1` (stereo not drawn), -43.1%. For `O=C(Nc1ccc([N+](=O)[O-])cc1)N1CCCCC1`, the “hERG current change (%, negative = inhibition) at 10uM” value was -1.34%. As to `COc1ccc(N(CC(=O)NCCSCc2ccc(Cl)cc2)S(C)(=O)=O)cc1Cl`, the “hERG current change (%, negative = inhibition) at 10uM” value amounted to 6.61%. As for `CCOC(=O)c1c(NC(C)=O)sc2c1CCCNC2=O`, the figure is 0.342%. On to `CCN(CC)CCCNc1oc(-c2cccc(Cl)c2)nc1C#N`, for which the “hERG current change (%, negative = inhibition) at 10uM” value is on record as -37.6%. On to `Cc1c(CN2CCN(c3cccc(C(F)(F)F)c3)CC2)c(=O)n(-c2ccccc2)n1C`, for which the “hERG current change (%, negative = inhibition) at 10uM” value is given as -39.7%. Consider `Cc1ccc(NC(=O)CSc2n[nH]c(-c3ccco3)n2)cc1`, for which the “hERG current change (%, negative = inhibition) at 10uM” value is given as -5.79%. As for `Nc1ccc(-c2nnn(Cc3ccccc3F)n2)cc1`, the figure is -9.3%. As for `CN1CCN(c2nc(N3CCN(c4ccccc4)CC3)ncc2F)CC1`, the figure is -21.1%; as for `NC(=O)c1ccc(Oc2ccc(C(N)=O)cc2)cc1`, 17.5%. The result for `O=S(=O)(c1ccc(F)c(Cl)c1)N1CCCC1` reads 10.4%; that for `O=C(Nc1ccc(F)c(F)c1)c1ccccc1-c1ccccc1`, -6.3%.

Take `CCOC(=O)C1=C(COC(=O)c2ccc(Cl)cc2[N+](=O)[O-])NC(=O)NC1C` (stereo not drawn): the “hERG current change (%, negative = inhibition) at 10uM” value worked out at 9.55%. As for `O=C(NCc1ccco1)c1ccc(-c2csnn2)cc1`, the figure is 2.22%.

As to `Cc1cccc(-c2noc(CSc3ccccc3)n2)c1`, the “hERG current change (%, negative = inhibition) at 10uM” value came out at 3.2%. The result for `CCCNC(=S)NNC(=O)c1cc(C2CC2)nc2ccccc12` reads 23.4%; that for `CCCOc1ccc(C(=O)NC(=S)NCc2cccnc2)cc1`, -27.7%; that for `CCCCCC1CC(CC(=O)O)C(=O)O1` (stereo not drawn), 1.43%.

In the case of `Cc1ncc(CSc2nc3ccccc3[nH]2)c(N)n1`, the “hERG current change (%, negative = inhibition) at 10uM” value is reported as -4.81%. The result for `Cc1cc(C(=O)CN2CCC(C)CC2)c(C)n1-c1ccccc1F` reads -5.74%; that for `Cc1ccccc1OCCC(=O)N1CCN(S(=O)(=O)c2ccccc2F)CC1`, 9.81%; that for `CCOC(=O)C(=O)N/N=C/c1cccc(Br)c1`, -10.5%. The result for `Cc1nnc(SCc2ccc(C(=O)Nc3cc(Cl)ccc3C)cc2)s1` reads -23.7%.

For the molecule `CCOC(=O)c1cc(C(C)=O)c(=O)n(C)c1N`, the “hERG current change (%, negative = inhibition) at 10uM” value is 16.7%.
